Reference: PubChem BioAssay AID1645882 (National Center for Advancing Translational Sciences (NCATS), 2021)
Out of some 16,000 compounds screened, about 120 (0.75%) were called active. Roughly 4% stayed inconclusive and do not appear here. The call rests on the fitted dose curve; in most records, active means well fitted inhibition curve with a large enough effect; inconclusive means small, poorly fitted or top-dose-only effect; inactive means no such curve, though single readings can be large or run the other way. The list shows a part of the results.

Biological target: Rap guanine nucleotide exchange factor 3 (Homo sapiens) (UniProt O95398)
Sequence of UniProt O95398 (O95398 whole entry, looked up): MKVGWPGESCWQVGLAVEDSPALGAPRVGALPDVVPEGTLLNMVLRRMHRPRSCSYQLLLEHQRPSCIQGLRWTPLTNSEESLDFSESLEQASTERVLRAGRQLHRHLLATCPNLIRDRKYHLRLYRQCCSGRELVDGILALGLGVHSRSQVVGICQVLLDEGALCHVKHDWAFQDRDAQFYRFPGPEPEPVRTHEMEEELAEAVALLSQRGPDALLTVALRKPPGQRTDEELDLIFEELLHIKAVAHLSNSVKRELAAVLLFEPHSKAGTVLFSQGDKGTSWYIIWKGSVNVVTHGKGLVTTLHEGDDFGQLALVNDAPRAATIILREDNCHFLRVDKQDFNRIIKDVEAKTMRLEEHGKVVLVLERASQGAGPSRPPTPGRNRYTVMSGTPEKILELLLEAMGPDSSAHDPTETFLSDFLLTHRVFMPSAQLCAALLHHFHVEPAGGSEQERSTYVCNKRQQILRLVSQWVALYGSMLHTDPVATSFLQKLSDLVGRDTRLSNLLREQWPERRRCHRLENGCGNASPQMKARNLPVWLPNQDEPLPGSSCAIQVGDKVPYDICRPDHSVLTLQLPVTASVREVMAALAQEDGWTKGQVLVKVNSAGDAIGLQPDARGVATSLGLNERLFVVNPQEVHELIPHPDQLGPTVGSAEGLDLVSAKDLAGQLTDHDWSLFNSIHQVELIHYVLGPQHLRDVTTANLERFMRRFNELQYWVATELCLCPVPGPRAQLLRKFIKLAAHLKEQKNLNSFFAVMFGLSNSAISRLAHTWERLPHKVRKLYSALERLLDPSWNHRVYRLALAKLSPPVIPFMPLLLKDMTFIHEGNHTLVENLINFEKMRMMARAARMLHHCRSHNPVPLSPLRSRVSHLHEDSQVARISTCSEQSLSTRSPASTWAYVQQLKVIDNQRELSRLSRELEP
Experiment: Validation qHTS for antagonist of cAMP-regulated guanine nucleotide exchange factor 3 (EPAC1); further: nearly all actives have a fitted effect of over 75% in size;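 on activity change, negative = inhibition: plate controls were DMSO for no effect and ATA control for full effect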
Conditions: EPAC1 Rap1B-BODIPY-GDP exchange, fluorescence; series mostly up to 150 µM; activity change, negative = inhibition: at the top concentration
In short: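 EPAC1 (100 nM) mixed with 250 nM RAP1B-BODIPY-GDP and 50 uM GDP; compounds in concentration series, 5 min at room temperature. Fluorescence (ex 480/em 540 nm) read every 5 min for 30 min; normalized to ATA control and DMSO.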
Potency means the concentration at half of the fitted maximal effect.

Row | SMILES | activity change, negative = inhibition | Potency
1 | O=C(NCCc1c[nH]c2ccccc12)c1cccnc1 | inactive: -6.62% | 
2 | C1CCN2C[C@@H]3C[C@@H](CN4CCCC[C@@H]34)[C@H]2C1 | inactive | 
3 | CN(Cc1ccc2c(c1)CN(C(=O)c1cccc(N(C)C)c1)CCO2)Cc1cc(C2CC2)n[nH]1 | inactive: 16.3% | 
4 | COc1ccc(-c2nc3cnc(N4CCOCC4)nc3n(C)c2=O)cc1 | inactive: 13.1% | 
5 | COc1ccc(-c2[nH]ncc2CN2CCOc3c(cc(-c4cccc(OC)n4)cc3OC)C2)cc1 | inactive: 0.414% | 
6 | CCCc1nc2cccnc2n1C1CCN(C(=O)CC2NC(=O)c3ccccc32)CC1 (configuration not stated) | inactive: -0.429% | 
7 | COc1ccc2c(OC)c3ccoc3nc2c1OC | inactive: -16.1% | 
8 | COc1cccc(-c2nccc(NCc3cccnc3)n2)c1 | inactive: 15.5% | 
9 | NC1=NCCN1CC(=O)O | inactive: 15% | 
10 | C[C@@H]([C@H](O)c1ccc(O)cc1)N1CCC(Cc2ccccc2)CC1 | inactive: 14.6% | 
11 | CC1CC2C3CC(F)C4=CC(=O)C=C[C@@]4(C)[C@@]3(F)C(O)C[C@]2(C)[C@]1(O)C(=O)COC(=O)C(C)(C)C (some centres not stated) | inactive: 5.44% | 
12 | COc1cccc(Cn2c(=O)c(-c3cccc(C#N)c3)nc3cnc(OC)nc32)c1 | inactive: 10.7% | 
13 | CN(C)CC(C)(C)CNC(=O)c1cnn(-c2ncc3c(n2)-c2ccccc2CC3)c1-c1ccco1 | inactive: 9.1% | 
14 | O=C(CC1(c2cccc(F)c2)CC(=O)N(Cc2cccnc2)C1=O)N1CCCCCCC1 (configuration not stated) | inactive: 9.28% | 
15 | O=C1C[C@@H]2c3c(cccc3CN1Cc1ccc(Cl)cc1)C[C@@H](O)[C@H]2O | inactive: -5.14% | 
16 | CCCCCCCCCCCCCCCCCCO | inactive: 8.83% | 
17 | COc1ccccc1CNc1ncncc1-c1cccc(NS(C)(=O)=O)c1 | inactive: -8.62% | 
18 | COCC(=O)N1CCC2(CC1)CCN(C(c1ccccc1)c1ccccc1)CC2 | inactive: -0.451% | 
19 | CC(C)N1C[C@@H](Sc2ccccn2)C[C@H]1C(=O)Nc1ccc2c(c1)Nc1ccccc1CC2 | inactive: 7.12% | 
20 | CC(C)C[C@@H](CO)N1CCN(CCc2ccccc2)CCC1=O | inactive: 0.539% | 
21 | CCN(CC)CCN(C)C(=O)c1ccc(-c2ccccc2)nc1N(C)C | inactive: -5.41% | 
22 | COc1cccc(Cn2c(=O)c(C)nc3cnc(OCc4ccccc4)nc32)c1 | inactive: -6.5% | 
23 | O=c1c(-c2ccc(F)cc2)nc2cnc(N3CCOCC3)nc2n1C[C@H]1CCCO1 | inactive: 14.8% | 
24 | O=C(N[C@@H]1c2ccccc2C2(CCN(C(=O)c3ccc4c(c3)OCCO4)CC2)[C@H]1O)c1cccnc1 | inactive: 1.07% | 
25 | COCCn1c(=O)c(-c2cccs2)nc2cnc(Oc3cccc(Cl)c3)nc21 | inactive: 4.1% | 
26 | CCOC(=O)C12CC1/C(=N\O)c1ccccc1O2 (configuration not stated) | inactive: 10.2% | 

Row | SMILES | activity change, negative = inhibition | Potency
27 | N#Cc1cccc(-c2nc3cnc(Nc4ccccc4)nc3n(C[C@H]3CCCO3)c2=O)c1 | inactive: 40.7% | 
28 | C=C1C[C@@]23C[C@@]1(O)CCC2[C@@]12C=CC(O)[C@](C)(C(=O)O1)C2C3C(=O)O (some centres not stated) | inactive: -1.24% | 
29 | CN1CCN(c2ncc3ncc(=O)n(-c4ccccc4)c3n2)CC1 | inactive: -1.9% | 
30 | COc1ccc(CN2CC[C@H]3C=CC[C@@H](C(=O)NCc4cccnc4)[C@H]3C2=O)cc1OC | inactive: 7.32% | 
31 | COc1ccc(CNc2cc(-c3cccc(C#N)c3)ncn2)c(OC)c1 | inactive: -18.9% | 
32 | Cc1ccc(-c2ccnc(-n3ncc(C(=O)N4CCCCC4c4cccnc4)c3C3CC3)n2)o1 (configuration not stated) | inactive: 9.3% | 
33 | C=C1/C(=C\C=C2/CCC[C@]3(C)C([C@H](C)CCCC(C)(C)O)CC[C@@H]23)C[C@@H](O)C[C@@H]1O (some centres not stated) | inactive: 16.2% [at 15.3 µM] | 
34 | CS(=O)(=O)c1ccc(Cn2c3c(c4cc(F)cc(F)c42)CCC[C@H]3CC(=O)O)cc1 | inactive: -11.5% | 
35 | CCCCC(C)(C)[C@H](O)/C=C/[C@H]1[C@H](O)CC(=O)[C@@H]1C/C=C\CCCC(=O)O | inactive: -16.9% [at 15.3 µM] | 
36 | Clc1nccc2c1ccc1ccccc12 | inactive: 19.6% [at 75.8 µM] | 
37 | CC1(O)CC2C(CC1O)C2(C)C (configuration not stated) | inactive: -10% | 
38 | CN(C)c1ncnc2ccc(-c3ccccc3C#N)cc12 | inactive: 29.8% | 
39 | O=C(O)COC(=O)Cc1ccccc1Nc1c(Cl)cccc1Cl | inactive: 17.4% [at 75.8 µM] | 
40 | OC1(c2ccc(Cl)c(C(F)(F)F)c2)CCN(CCCC(c2ccc(F)cc2)c2ccc(F)cc2)CC1 | inactive: 7.31% | 
41 | C[C@@H]1C[C@H]2[C@@H]3CCC4=CC(=O)C=C[C@]4(C)[C@@]3(F)[C@@H](O)C[C@]2(C)[C@@]1(O)C(=O)CO | inactive: 35.2% | 
42 | c1ccc(CN2CCC3(CCc4ccccc43)CC2)cc1 | inactive | 
43 | CC(CC(c1ccccc1)c1ccccc1)NC(C)(C)C (configuration not stated) | inactive: 22.5% | 
44 | Cc1c(C(=O)N2CCCCCC2)sc2ncnc(NCC3CCCO3)c12 (configuration not stated) | inactive: 9.68% | 
45 | COCC(=O)N1CCC2(CC1)CN(c1ccncc1)C2 | inactive: 5.94% | 
46 | OCC1O[C@@H](OC2C(O)C(CO)O[C@@]2(CO)O[C@@H]2OC(CO)C(O)C(O)C2O)C(O)C(O)C1O (some centres not stated) | inactive: 23.7% | 
47 | Cc1cc2nc(N3CCCN(Cc4cccn4-c4ncccn4)CC3)nc(C)c2cc1C | inactive: 5.09% | 
48 | CCOC(=O)C1CCCN(C(=O)c2cnn(-c3ncc4c(n3)-c3ccccc3CCC4)c2C2CC2)C1 (configuration not stated) | inactive: 6.27% | 
49 | Cc1noc(C)c1-c1ccc2ncnc(N3CCC(C(=O)O)CC3)c2c1 | inactive: 1.48% | 
50 | Clc1ccccc1-c1nccc(-n2ccnc2)n1 | inactive: 28.9% | 
51 | CC12CCC(CC1)C(C)(C)O2 | inactive | 
52 | Cc1cccc(CNc2ncnc3ccc(-c4ccc(C(=O)N(C)C)cc4)cc23)c1 | inactive: 11.4% | 

Row | SMILES | activity change, negative = inhibition | Potency
53 | CC(=O)Nc1ncc([N+](=O)[O-])s1 | inactive: 18.9% | 
54 | CN(C)C1C(=O)C(C(N)=O)=C(O)[C@@]2(O)C(=O)C3=C(O)c4c(O)ccc(Cl)c4C(O)[C@H]3C[C@@H]12 (some centres not stated) | inactive: -4.48% | 
55 | O=S(=O)(NCc1nnc2n1CCN(Cc1ccccc1Cl)CC2)c1ccccc1 | inactive: 14.4% | 
56 | CS(=O)(=O)Nc1cccc(-c2cc(NCc3cccs3)ncn2)c1 | inactive: 11.7% | 
57 | Cc1cc2nc3c(=O)[nH]c(=O)nc-3n(CC(O)C(O)C(O)CO)c2cc1C (configuration not stated) | inactive: 444% | 
58 | CO[C@@]1(NC(=O)CSC[C@@H](N)C(=O)O)C(=O)N2C(C(=O)O)=C(CSc3nnnn3C)CS[C@@H]21 | inactive: -21.9% | 
59 | COc1c(O)cccc1O | inactive: 27.7% | 
60 | CCC1CN2CCc3cc(OC)c(OC)cc3C2CC1CC1NCCc2cc(OC)c(OC)cc21 (configuration not stated) | inactive: 428% | 
61 | Cc1ccccc1C1(CC(=O)N2CCC[C@H]2C(N)=O)CC(=O)N(C2CCCC2)C1=O (some centres not stated) | inactive: 11.8% | 
62 | NCCNC(=O)c1ncsc1-c1cccc(F)c1 | inactive: -0.267% [at 75.8 µM] | 
63 | Cc1cc(CC(=O)O)n(C)c1C(=O)c1ccc(Cl)cc1 | inactive | 
64 | COc1ccccc1N1CCN(CCCCNS(=O)(=O)c2cccc3c(N(C)C)cccc23)CC1 | inactive: 1.71% [at 75.8 µM] | 
65 | Cc1ccc(C(=O)O[C@H](C(=O)O)[C@@H](OC(=O)c2ccc(C)cc2)C(=O)O)cc1 (tested in a mixture with another compound) | inactive: -2.81% [at 75.8 µM] | 
66 | O=C(O)C1=CCCNC1 | inactive | 
67 | Cc1ccccc1C(=O)NC(C)c1nnc2n1CCN(Cc1ccccc1F)CC2 (configuration not stated) | inactive: -2.79% | 
68 | COc1ccc2cc(C(C)C(=O)O)ccc2c1 (configuration not stated) | inactive: 10.3% | 
69 | COC(=O)C1N[C@@H]([C@@H](NC(=O)COc2ccccc2)C(=O)Nc2ccc(OC)cc2)SC1(C)C (some centres not stated) | inactive: 13.8% | 
70 | COc1ccc(-c2nc3cnc(Nc4cccc(OC)c4)nc3n(Cc3cccs3)c2=O)cc1 |  | active: 100 µM
71 | O=S(=O)(O)c1ccc2nc(-c3ccccc3)[nH]c2c1 | inactive: 20.8% | 
72 | CC(=O)N1C[C@H](O)C[C@H]1C(=O)O | inactive: 5.96% | 
73 | Cc1nc2sccn2c1CN1CCOc2ccc(CN3C[C@@H](C)O[C@@H](C)C3)cc2C1 | inactive: 15% | 
74 | CN(C)C(=O)Nc1ccc(Cl)c(Cl)c1 | inactive: 19.6% | 
75 | O=C1c2ccccc2CN2C(=O)c3ccccc3CN12 | inactive: 14% | 
76 | Cc1noc(C)c1-c1nc(NCc2cccnc2)c2ccccc2n1 | inactive: -7.1% | 
77 | O=c1cc(-c2ccc(O)cc2)oc2cccc(O)c12 | inactive: 2.73% | 
78 | COc1ccc(C(=O)N2CCC3(CC2)CN(C(=O)Nc2ccccc2)C3)cc1 | inactive: 18.5% | 

Row | SMILES | activity change, negative = inhibition | Potency
79 | Cc1noc(C)c1C(=O)N1CCC2(CC1)CN(c1ccccn1)C2 | inactive: -5.76% | 
80 | CC#CCOC(=O)C1=CCCN(C)C1 | inactive | 
81 | CC(C)(C)c1onc(OCP(=O)(O)O)c1CC(N)C(=O)O (configuration not stated) | inactive | 
82 | COc1ccc(CN2CCOc3ccc(CN4CCC(O)CC4)cc3C2)c(OC)c1OC | inactive: -0.0331% | 
83 | CC(=O)N1CCC[C@@]2(CCN(Cc3ccccc3)C2)C1 | inactive: 3.56% | 
84 | Cc1cc(-c2ccnc(-n3ncc(C(=O)NCC4COCCO4)c3C3CC3)n2)c(C)s1 (configuration not stated) | inactive: -7.72% | 
85 | O=C(NCc1nnc2n1CCN(Cc1cccc(Cl)c1)CC2)c1cccc(F)c1 | inactive: -1.72% | 
86 | COc1ccccc1-c1ccc2ncnc(NCCNC(C)=O)c2c1 | inactive: 4.26% | 
87 | NC1(C(=O)O)CC(C(=O)O)C1 (configuration not stated) | inactive | 
88 | C[C@H](CCC(=O)O)[C@H]1CC[C@H]2[C@@H]3CC[C@@H]4C[C@H](O)CC[C@]4(C)[C@H]3C[C@H](O)[C@]12C | inactive: 16.8% | 
89 | NC(=NCc1ccc(Cl)cc1Cl)NC(=O)c1nc(Cl)c(N)nc1N | inactive | 
90 | COc1ccccc1-c1nc(NCCN2CCOCC2)c2ccccc2n1 | inactive: 8.46% | 
91 | O=C(O)C1CCCN1 (configuration not stated) | inactive: 8.11% | 
92 | Cc1ccc2c(C)nc(N3CCCC(C(=O)NC(C)(C)CO)C3)nc2c1 (configuration not stated) | inactive: -10.3% | 
93 | CC1Cc2ccccc2N1NC(=O)c1ccc(Cl)c(S(N)(=O)=O)c1 (configuration not stated) | inactive | 
94 | CC(C)(C)[C@]1(O)CCN2C[C@H]3c4ccccc4CCc4cccc(c43)[C@@H]2C1 | inactive | 
95 | Nc1nc2[nH]c(=O)cnc2c(=O)[nH]1 | inactive: -1.27% [at 75.8 µM] | 
96 | NC(=O)[C@H]1O[C@@H](O)[C@H](O)[C@@H](O)[C@@H]1O | inactive: 10.7% | 
97 | O=S(=O)(c1ccccc1)N1CCC[C@@]2(CCN(C(c3ccccc3)c3ccccc3)C2)C1 | inactive: 15.4% | 
98 | [N-]=[N+]=NCCN1CCN(Cc2ccccc2)CCC1=O | inactive: -7.47% | 
99 | O=S1(=O)CCO[C@H]2CCCC[C@@H]2N1Cc1ccccc1F | inactive: 5.08% | 
100 | CCN(CC)CCNC(=O)c1cnn(-c2ncc3c(n2)-c2ccc(OC)cc2CC3)c1C | inactive: 4.53% | 
101 | C=C(C)C(=O)OC[C@@H]1CCC[N@+]2(C)CCCCC12 (some centres not stated) | inactive: 27.4% | 
102 | CCOc1ccccc1O[C@H](c1ccccc1)[C@H]1CNCCO1 | inactive: 12.3% | 
